{"source": "the supplement of paper PMC8728848", "binders": {"B1": {"name": "Gal 8 (Mus musculus), Q9JL15 (protein)", "chain": "MGGSHHHHHHGMASMLSLNNLQNIIYNPIIPYVGTITEQLKPGSLIVIRGHVPKDSERFQVDFQLGNSLKPRADVAFHFNPRFKRSSCIVCNTLTQEKWGWEEITYDMPFRKEKSFEIVFMVLKNKFQVAVNGRHVLLYAHRISPEQIDTVGIYGKVNIHSIGFRFSSASALPHTLGDLQSMETSALGLTQINRENIQKPGKLQLSLPFEARLNASMGPGRTVVIKGEVNTNARSFNVDLVAGKTRDIALHLNPRLNVKAFVRNSFLQDAWGEEERNITCFPFSSGMYFEMIIYCDVREFKVAINGVHSLEYKHRFKDLSSIDTLSVDGDIRLLDVRSW"}}, "assay_in_all_cases": "glycan array binding signal (z-score within array); higher = stronger binding", "conditions_in_all_cases": "glycan notation: IUPAC condensed, linker removed", "key": {"Fuc(a1-2)Gal": {"molecular_target": "Fuc(a1-2)Gal", "summary_of_the_method": "(§1)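 The binding signal is a Z-score computed within each array. Data were drawn from 3228 arrays in the Consortium for Functional Glycomics database, restricted to those with a known protein sequence. Scores were averaged over arrays of the same protein sequence at different concentrations or buffers, and over linkers, and negative values can be taken as non-binding.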"}, "Fuc(a1-2)Gal(b1-3)GalNAc": {"molecular_target": "Fuc(a1-2)Gal(b1-3)GalNAc", "summary_of_the_method": "as §1"}, "[1]": {"molecular_target": "Fuc(a1-2)Gal(b1-3)GalNAc(a1-3)[Fuc(a1-2)]Gal(b1-4)Glc", "summary_of_the_method": "as §1"}, "[2]": {"molecular_target": "Fuc(a1-2)Gal(b1-3)GalNAc(a1-3)[Fuc(a1-2)]Gal(b1-4)GlcNAc", "summary_of_the_method": "as §1"}, "[3]": {"molecular_target": "Fuc(a1-2)Gal(b1-3)GalNAc(b1-3)Gal", "summary_of_the_method": "as §1"}, "[4]": {"molecular_target": "Fuc(a1-2)Gal(b1-3)GalNAc(b1-3)Gal(a1-4)Gal(b1-4)Glc", "summary_of_the_method": "as §1"}, "[5]": {"molecular_target": "Fuc(a1-2)Gal(b1-3)GalNAc(b1-4)[Neu5Ac(a2-3)]Gal(b1-4)Glc", "summary_of_the_method": "as §1"}, "Fuc(a1-2)Gal(b1-3)GlcNAc": {"molecular_target": "Fuc(a1-2)Gal(b1-3)GlcNAc", "summary_of_the_method": "as §1"}, "[6]": {"molecular_target": "Fuc(a1-2)Gal(b1-3)GlcNAc(b1-2)Man(a1-3)[Fuc(a1-2)Gal(b1-3)GlcNAc(b1-2)Man(a1-6)]Man(b1-4)GlcNAc(b1-4)GlcNAc", "summary_of_the_method": "as §1"}, "[7]": {"molecular_target": "Fuc(a1-2)Gal(b1-3)GlcNAc(b1-2)Man(a1-3)[Fuc(a1-2)Gal(b1-3)GlcNAc(b1-2)Man(a1-6)]Man(b1-4)GlcNAc(b1-4)[Fuc(a1-6)]GlcNAc", "summary_of_the_method": "as §1"}, "[8]": {"molecular_target": "Fuc(a1-2)Gal(b1-3)GlcNAc(b1-3)Gal(b1-4)Glc", "summary_of_the_method": "as §1"}, "[9]": {"molecular_target": "Fuc(a1-2)Gal(b1-3)GlcNAc(b1-3)GalNAc", "summary_of_the_method": "as §1"}, "[10]": {"molecular_target": "Fuc(a1-2)Gal(b1-3)GlcNAc(b1-3)[Fuc(a1-2)Gal(b1-3)GlcNAc(b1-6)]GalNAc", "summary_of_the_method": "as §1"}, "[11]": {"molecular_target": "Fuc(a1-2)Gal(b1-3)GlcNAc(b1-3)[Gal(b1-4)GlcNAc(b1-6)]Gal(b1-4)Glc", "summary_of_the_method": "as §1"}, "[12]": {"molecular_target": "Fuc(a1-2)Gal(b1-3)GlcNAc(b1-3)[Neu5Ac(a2-6)Gal(b1-4)GlcNAc(b1-6)]Gal(b1-4)Glc", "summary_of_the_method": "as §1"}, "[13]": {"molecular_target": "Fuc(a1-2)Gal(b1-3)GlcNAc6S", "summary_of_the_method": "as §1"}, "[14]": {"molecular_target": "Fuc(a1-2)Gal(b1-3)[Fuc(a1-4)]GlcNAc", "summary_of_the_method": "as §1"}, "[15]": {"molecular_target": "Fuc(a1-2)Gal(b1-3)[Fuc(a1-4)]GlcNAc(b1-2)Man(a1-3)[Fuc(a1-2)Gal(b1-3)[Fuc(a1-4)]GlcNAc(b1-2)Man(a1-3)]Man(b1-4)GlcNAc(b1-4)GlcNAc", "summary_of_the_method": "as §1"}, "[16]": {"molecular_target": "Fuc(a1-2)Gal(b1-3)[Fuc(a1-4)]GlcNAc(b1-2)Man(a1-3)[Fuc(a1-2)Gal(b1-3)[Fuc(a1-4)]GlcNAc(b1-2)Man(a1-6)]Man(b1-4)GlcNAc(b1-4)[Fuc(a1-6)]GlcNAc(b1-4)[Fuc(a1-6)]GlcNAc", "summary_of_the_method": "as §1"}, "[17]": {"molecular_target": "Fuc(a1-2)Gal(b1-3)[Fuc(a1-4)]GlcNAc(b1-3)[Fuc(a1-3)[Gal(b1-4)]GlcNAc(b1-6)]Gal(b1-4)Glc", "summary_of_the_method": "as §1"}, "[18]": {"molecular_target": "Fuc(a1-2)Gal(b1-3)[Fuc(a1-4)]GlcNAc(b1-3)[Gal(b1-4)GlcNAc(b1-6)]Gal(b1-4)Glc", "summary_of_the_method": "as §1"}, "[19]": {"molecular_target": "Fuc(a1-2)Gal(b1-4)Fuc(a1-3)]GlcNAc(b1-2)Man(a1-3)[Fuc(a1-2)Gal(b1-4)[Fuc(a1-3)]GlcNAc(b1-2)Man(a1-6)]Man(b1-4)GlcNAc(b1-4)GlcNAc", "summary_of_the_method": "as §1"}, "Fuc(a1-2)Gal(b1-4)Glc": {"molecular_target": "Fuc(a1-2)Gal(b1-4)Glc", "summary_of_the_method": "as §1"}, "Fuc(a1-2)Gal(b1-4)Glc6S": {"molecular_target": "Fuc(a1-2)Gal(b1-4)Glc6S", "summary_of_the_method": "as §1"}, "Fuc(a1-2)Gal(b1-4)GlcNAc": {"molecular_target": "Fuc(a1-2)Gal(b1-4)GlcNAc", "summary_of_the_method": "as §1"}, "[20]": {"molecular_target": "Fuc(a1-2)Gal(b1-4)GlcNAc(b1-2)Man", "summary_of_the_method": "as §1"}, "[21]": {"molecular_target": "Fuc(a1-2)Gal(b1-4)GlcNAc(b1-2)Man(a1-3)[Fuc(a1-2)Gal(b1-4)GlcNAc(b1-2)Man(a1-6)]Man(b1-4)GlcNAc(b1-4)GlcNAc", "summary_of_the_method": "as §1"}, "[22]": {"molecular_target": "Fuc(a1-2)Gal(b1-4)GlcNAc(b1-2)Man(a1-3)[Fuc(a1-2)Gal(b1-4)GlcNAc(b1-2)Man(a1-6)]Man(b1-4)GlcNAc(b1-4)[Fuc(a1-6)]GlcNAc", "summary_of_the_method": "as §1"}, "[23]": {"molecular_target": "Fuc(a1-2)Gal(b1-4)GlcNAc(b1-2)[Fuc(a1-2)Gal(b1-4)GlcNAc(b1-4)]Man(a1-3)[Fuc(a1-2)Gal(b1-4)GlcNAc(b1-2)Man(a1-6)]Man(b1-4)GlcNAc(b1-4)GlcNAc", "summary_of_the_method": "as §1"}, "[24]": {"molecular_target": "Fuc(a1-2)Gal(b1-4)GlcNAc(b1-3)Gal(b1-4)GlcNAc", "summary_of_the_method": "as §1"}, "[25]": {"molecular_target": "Fuc(a1-2)Gal(b1-4)GlcNAc(b1-3)Gal(b1-4)GlcNAc(b1-2)Man(a1-3)[Fuc(a1-2)Gal(b1-4)GlcNAc(b1-3)Gal(b1-4)GlcNAc(b1-2)Man(a1-6)]Man(b1-4)GlcNAc(b1-4)GlcNAc", "summary_of_the_method": "as §1"}, "[26]": {"molecular_target": "Fuc(a1-2)Gal(b1-4)GlcNAc(b1-3)Gal(b1-4)GlcNAc(b1-3)Gal(b1-4)GlcNAc", "summary_of_the_method": "as §1"}, "[27]": {"molecular_target": "Fuc(a1-2)Gal(b1-4)GlcNAc(b1-3)GalNAc", "summary_of_the_method": "as §1"}, "[28]": {"molecular_target": "Fuc(a1-2)Gal(b1-4)GlcNAc(b1-3)[Fuc(a1-2)Gal(b1-4)GlcNAc(b1-6)]GalNAc", "summary_of_the_method": "as §1"}, "[29]": {"molecular_target": "Fuc(a1-2)Gal(b1-4)GlcNAc(b1-3)[Fuc(a1-3)[Gal(b1-4)]GlcNAc(b1-6)]Gal(b1-4)Glc", "summary_of_the_method": "as §1"}, "[30]": {"molecular_target": "Fuc(a1-2)Gal(b1-4)GlcNAc(b1-6)GalNAc", "summary_of_the_method": "as §1"}, "[31]": {"molecular_target": "Fuc(a1-2)Gal(b1-4)GlcNAc6S", "summary_of_the_method": "as §1"}}, "note": "The list shows a part of the results.", "data": [{"binder": "B1", "values": [{"measurement": "glycan array binding signal (z-score)", "setting": "Fuc(a1-2)Gal", "result": -0.535}, {"measurement": "glycan array binding signal (z-score)", "setting": "Fuc(a1-2)Gal(b1-3)GalNAc", "result": -0.469}, {"measurement": "glycan array binding signal (z-score)", "setting": "[1]", "result": 0.634}, {"measurement": "glycan array binding signal (z-score)", "setting": "[2]", "result": 1.23}, {"measurement": "glycan array binding signal (z-score)", "setting": "[3]", "result": -0.425}, {"measurement": "glycan array binding signal (z-score)", "setting": "[4]", "result": -0.294}, {"measurement": "glycan array binding signal (z-score)", "setting": "[5]", "result": -0.259}, {"measurement": "glycan array binding signal (z-score)", "setting": "Fuc(a1-2)Gal(b1-3)GlcNAc", "result": 0.14}, {"measurement": "glycan array binding signal (z-score)", "setting": "[6]", "result": 0.598}, {"measurement": "glycan array binding signal (z-score)", "setting": "[7]", "result": -0.102}, {"measurement": "glycan array binding signal (z-score)", "setting": "[8]", "result": 0.088}, {"measurement": "glycan array binding signal (z-score)", "setting": "[9]", "result": -0.027}, {"measurement": "glycan array binding signal (z-score)", "setting": "[10]", "result": 0.621}, {"measurement": "glycan array binding signal (z-score)", "setting": "[11]", "result": 0.195}, {"measurement": "glycan array binding signal (z-score)", "setting": "[12]", "result": -0.083}, {"measurement": "glycan array binding signal (z-score)", "setting": "[13]", "result": 2.44}, {"measurement": "glycan array binding signal (z-score)", "setting": "[14]", "result": -0.546}, {"measurement": "glycan array binding signal (z-score)", "setting": "[15]", "result": -0.516}, {"measurement": "glycan array binding signal (z-score)", "setting": "[16]", "result": -0.531}, {"measurement": "glycan array binding signal (z-score)", "setting": "[17]", "result": -0.369}, {"measurement": "glycan array binding signal (z-score)", "setting": "[18]", "result": -0.161}, {"measurement": "glycan array binding signal (z-score)", "setting": "[19]", "result": -0.502}, {"measurement": "glycan array binding signal (z-score)", "setting": "Fuc(a1-2)Gal(b1-4)Glc", "result": 0.021}, {"measurement": "glycan array binding signal (z-score)", "setting": "Fuc(a1-2)Gal(b1-4)Glc6S", "result": 0.2}, {"measurement": "glycan array binding signal (z-score)", "setting": "Fuc(a1-2)Gal(b1-4)GlcNAc", "result": -0.245}, {"measurement": "glycan array binding signal (z-score)", "setting": "[20]", "result": -0.422}, {"measurement": "glycan array binding signal (z-score)", "setting": "[21]", "result": 0.461}, {"measurement": "glycan array binding signal (z-score)", "setting": "[22]", "result": 0.051}, {"measurement": "glycan array binding signal (z-score)", "setting": "[23]", "result": 0.33}, {"measurement": "glycan array binding signal (z-score)", "setting": "[24]", "result": 0.746}, {"measurement": "glycan array binding signal (z-score)", "setting": "[25]", "result": 1.28}, {"measurement": "glycan array binding signal (z-score)", "setting": "[26]", "result": 0.901}, {"measurement": "glycan array binding signal (z-score)", "setting": "[27]", "result": -0.216}, {"measurement": "glycan array binding signal (z-score)", "setting": "[28]", "result": 0.31}, {"measurement": "glycan array binding signal (z-score)", "setting": "[29]", "result": 0.097}, {"measurement": "glycan array binding signal (z-score)", "setting": "[30]", "result": 0.668}, {"measurement": "glycan array binding signal (z-score)", "setting": "[31]", "result": -0.038}]}]}
